# The supplement of paper PMC12217912
# The other results are listed elsewhere or left out. The full chains were built here from the parent and the listed change. Values near 0.05 are background.
# B1: TEV protease; numbered along this chain (parent)
# chain: MGESLFKGPRDYNPISSSICHLTNESDGHTTSLYGIGFGPFIITNKHLFRRNNGTLVVQSLHGVFKVKDTTTLQQHLVDGRDMIIIRMPKDFPPFPQKLKFREPQREERICLVTTNFQTKSMSSMVSDTSCTFPSGDGIFWKHWIQTKDGQCGSPLVSTRDGFIVGIHSASNFTNTNNYFTSVPKNFMELLTNQEAQQWVSGWRLNADSVLWGGHKVFMVKPEEPFQPVKEATQL
# Variants of: B1
# Assay: raw area under fraction-flipped curve 0-4 h after induction (AUC4h, not background-subtracted), DNA-recorder readout of cleavage of the substrate (dimensionless); higher = more cleavage of the substrate by the protease variant
# Conditions: temperature: 34 °C; time window: 0-4 h after rhamnose induction
# 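Also: Bxb1 expression induced with 0.2% (w/v) L-rhamnose at OD600 near 0.5, cultures sampled hourly, flipped fraction per protease–substrate barcode pair counted by paired-end Illumina sequencing.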
Variant,area with substrate ENCYFQS,area with substrate ENDYFQS,area with substrate ENEYFQS,area with substrate ENPYFQS,area with substrate ENQYFQS,area with substrate ENTYFQS,area with substrate ENWYFQS,area with substrate ENFYFQS,area with substrate ENGYFQS,area with substrate ENHYFQS,area with substrate ENKYFQS,area with substrate ENNYFQS,area with substrate ENRYFQS,area with substrate ENSYFQS,area with substrate ENVYFQS,area with substrate ENYYFQS,area with substrate ENMYFQS,area with substrate ENIYFQS
Q118H,0.0554,0.0612,0.0361,0.0455,0.0616,0.054,0.0381,–,–,–,–,–,–,–,–,–,–,–
N45S,0.053,–,0.0652,0.0567,0.0563,0.0551,0.0531,0.046,0.0736,0.057,0.0564,0.0651,0.0724,0.0587,0.0588,0.0624,–,–
N45D,0.0655,0.0597,0.0613,0.0591,0.0596,0.0512,0.0129,0.0638,0.0538,0.0564,0.0564,0.0506,0.0532,0.0681,0.059,0.0581,0.0578,–
N45Q,0.0598,0.0605,–,0.0656,0.0699,–,–,0.0743,–,0.0444,0.06,0.0621,–,0.0596,0.052,–,0.101,0.0571
D11I,0.0686,0.0549,–,0.0522,0.0698,0.0661,–,–,–,0.0656,–,0.0786,0.0637,0.0561,0.0698,0.0601,0.0676,–
F65E,0.0648,0.0561,–,0.0566,0.0635,–,0.0659,0.0658,0.0664,0.0331,–,–,0.0414,0.0629,0.0768,0.0422,0.0757,–
S121Y,0.0787,–,–,0.0554,–,0.0437,–,0.051,–,0.0592,–,0.0645,–,–,0.0823,–,–,–
H21K,0.0653,0.0668,0.0632,0.0554,0.0602,0.0666,0.0493,0.0562,0.0606,–,0.0554,–,–,–,0.069,–,–,0.0778
R10I,0.0674,–,0.0709,–,0.0588,0.0682,–,–,–,0.0509,–,0.111,–,0.0692,–,0.0586,–,0.116
D79L,0.0663,–,0.0624,–,0.06,–,0.0433,–,–,–,0.0492,–,0.0454,0.0652,–,0.0561,0.0967,0.126
T44Q,0.0424,0.0459,0.0466,–,0.0468,0.0358,–,–,0.0431,0.0376,0.0521,0.049,–,–,–,0.038,0.032,–
H29Q,0.0856,0.0674,0.0503,0.0508,0.0571,–,–,–,0.0541,0.0637,–,–,0.0742,0.0578,–,0.0574,–,–
H29W,0.0752,0.0602,0.0646,–,0.0646,0.0834,0.0593,–,0.062,0.0666,0.0649,0.0529,0.0468,0.0656,0.0891,–,0.0848,–
V113C,0.0813,0.0695,0.0649,0.0583,0.0573,0.0712,–,0.0302,0.0628,0.0626,–,–,0.0655,0.0586,0.0494,0.0568,–,–
V113N,0.0523,0.0552,0.061,–,0.056,–,0.163,0.0519,0.0568,0.0491,–,0.0553,0.0515,0.0812,0.0978,–,–,–
E25A,0.0766,0.0654,0.0571,–,0.0588,0.0537,–,0.0374,–,0.0318,0.0576,0.0653,0.043,0.0578,0.077,0.0735,0.0961,0.0866

Variant,area with substrate ENCYFQS,area with substrate ENDYFQS,area with substrate ENEYFQS,area with substrate ENPYFQS,area with substrate ENQYFQS,area with substrate ENTYFQS,area with substrate ENWYFQS,area with substrate ENFYFQS,area with substrate ENGYFQS,area with substrate ENHYFQS,area with substrate ENKYFQS,area with substrate ENNYFQS,area with substrate ENRYFQS,area with substrate ENSYFQS,area with substrate ENVYFQS,area with substrate ENYYFQS,area with substrate ENMYFQS,area with substrate ENIYFQS
F95R,0.0434,0.0549,0.0698,0.0533,0.0554,0.0556,–,0.0416,0.0519,0.0497,0.0452,0.0677,–,–,–,–,–,0.0656
K68F,0.0525,0.0677,–,0.0639,0.0481,0.0715,–,0.0753,–,–,–,0.0694,–,0.0594,0.0726,–,–,–
G35M,0.0515,–,–,–,–,–,–,–,0.0668,0.0381,–,–,–,0.0614,–,–,–,0.0591
G35L,0.0489,0.0285,–,–,–,–,–,–,0.0802,–,–,–,0.038,–,–,–,0.0347,0.0505
Q74G,0.0644,0.0651,0.0589,0.0819,0.0636,0.0357,0.0053,0.0564,0.0715,0.0457,0.0564,–,0.0579,–,0.0897,0.0593,–,0.0819
G63F,0.0548,0.059,0.0567,–,0.0613,0.0681,–,0.0374,–,–,–,0.0429,0.0702,0.0718,0.0717,0.0384,0.0761,0.119
N52M,0.0687,0.0503,–,–,–,–,–,–,0.0783,–,–,–,–,–,0.0717,0.0568,–,–
S18Y,0.0629,0.0405,0.0519,0.0565,0.0587,0.0778,–,–,–,–,0.0449,0.0558,0.0641,0.0636,0.0713,–,0.0668,–
H47A,0.0557,–,–,0.0703,0.0484,0.0705,0.0016,0.0358,–,–,–,–,–,–,0.0649,–,0.0558,0.0652
L99S,0.0608,–,–,0.0769,0.0498,0.0718,–,0.0591,0.0587,0.0504,–,–,0.0602,0.0553,0.0633,–,–,–
I85K,0.0636,0.0474,0.0617,–,0.0612,–,–,0.0494,0.0556,0.0532,0.0733,–,0.0644,0.0539,0.0584,0.0472,0.0896,–
T132Y,0.0546,0.0555,0.052,0.0778,0.0609,0.0432,–,0.0432,0.008,–,0.0445,0.0573,0.0635,0.0555,0.0611,–,0.045,0.0379
T23Q,0.0632,0.0653,0.0635,0.066,0.0639,0.0595,0.0373,0.0703,0.0531,0.0687,0.0589,0.0478,–,0.0698,0.0405,–,0.0885,0.0795
E103Y,0.0626,–,–,–,0.0745,0.0641,–,–,–,–,–,–,–,0.061,–,–,–,–
M125L,0.0589,0.0695,0.0538,–,0.104,0.0616,0.0475,0.0633,0.0397,–,0.065,–,0.0711,–,0.0739,0.0772,–,0.116
